PubChem BioAssay AID1347073 (National Center for Advancing Translational Sciences (NCATS), 2019)
Out of some 45,000 compounds screened, about 200 (0.44%) were called active. Roughly 7% stayed inconclusive and do not appear here. The call rests on the fitted dose curve; in most records, active means well fitted activation curve with a large enough effect; inconclusive means small, poorly fitted or top-dose-only effect; inactive means no such curve, though single readings can be large or run the other way. The list shows a part of the results.
Potency means the concentration at half of the fitted maximal effect.

Experiment: qHTS of TDP-43 Inhibitors: NCGC Sytravon Library Screen; further: nearly all actives have a fitted effect of over 55% in size; on growth rescue (activation): 0% is about no effect
Settings: yeast TDP-43 toxicity rescue, BacTiter-Glo growth, 24 h; series mostly up to 46.1 µM; growth rescue (activation): at the top concentration
How it was run: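 TDP-43-expressing yeast, pregrown in raffinose, seeded at OD600 0.02 in galactose medium with compound for 24 hr at 30 deg C. Growth read by BacTiter-Glo luminescence, so rescue of toxicity appears as activation.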
For `CC(=O)c1ccc(S(=O)(=O)N(C)CCCC(=O)N(C)Cc2ccccc2F)cc1`, the “growth rescue (activation)” value was inactive: -1.87%. With `Cc1ccc(S(=O)(=O)NN2C(=O)c3ccccc3NC2c2ccccc2O)cc1` (centres undefined) the “growth rescue (activation)” value was inactive: 3.83%. In the case of `CC(=O)Nc1ccc(S(=O)(=O)c2ccc(C)cc2)cc1`, the “growth rescue (activation)” value is reported as inactive: 21.4%. For `O=C(COC(=O)c1cccc(S(=O)(=O)N2CCOCC2)c1)NCc1ccccc1`, the “growth rescue (activation)” value was inactive: 12.5%. In the case of `COc1ccc(C(O)c2ncc(-c3ccccc3OC)[nH]2)cc1` (centres undefined), the “growth rescue (activation)” value is reported as inactive: 8.12%. In the case of `O=C1c2ccccc2S(=O)(=O)N1Cc1c(F)cccc1Cl`, the “growth rescue (activation)” value is reported as inactive: 10.3%. In the case of `CCOC(=O)C1(Cc2cccc(F)c2)CCN(CC2CC2)CC1`, the “growth rescue (activation)” value is reported as inactive: 8.67%. In the case of `COc1cc(OC)cc(C(=O)/C=C2\Sc3ccccc3N2C)c1`, the “growth rescue (activation)” value is reported as inactive: -0.204%. For `CCCN1C(=O)/C(=C/c2ccncc2)SC1=S`, the “growth rescue (activation)” value was inactive: 6.88%. For `COc1cc(-c2csc(NC3CCCCC3)n2)cc(OC)c1OC`, the “growth rescue (activation)” value was inactive: 2.55%. With `COc1ccc(NC(=O)N2CCN(c3ccc([N+](=O)[O-])cc3)CC2)cc1OC` the “growth rescue (activation)” value was inactive: 14.5%. For `CCn1c2ccccc2c2cc(N=C3SC(CC(=O)Nc4ccccc4OC)C(=O)N3CCOC)ccc21` (centres undefined), the “growth rescue (activation)” value was inactive: 9.63%. With `Nc1cc(S(=O)(=O)Nc2cc(Cl)ccc2Cl)ccc1N1CCOCC1` the “growth rescue (activation)” value was inactive: 26.6%. For `O=C1Cc2cc(S(=O)(=O)NCc3ccc(F)cc3)ccc2N1`, the “growth rescue (activation)” value was inactive: 1.77%. In the case of `Cn1cc(CNC(=O)C2CCC(=O)N(Cc3ccccc3F)C2)cn1` (centres undefined), the “growth rescue (activation)” value is reported as inactive: -7.67%. With `Cc1ccc(C(=O)NCCNC(=O)c2ccc(C)nc2)cc1` the “growth rescue (activation)” value was inactive: 0.716%. In the case of `COc1ccc(N(C)C(=O)C2CCN(S(=O)(=O)c3cccc4nonc34)CC2)c(OC)c1`, the “growth rescue (activation)” value is reported as inactive: 14%. In the case of `CC1c2nc3ccccc3n2C(CC(=O)NCCCN2CCOCC2)C(=O)N1Cc1ccccc1` (centres undefined), the “growth rescue (activation)” value is reported as inactive: 10%. For `O=C(O)CNS(=O)(=O)c1ccc2c(c1)CCCC2`, the “growth rescue (activation)” value was inactive: 19.4%. For `COc1cc(Cl)cc(/C=C/c2ccc3ccccc3n2)c1OC(C)=O`, the Potency was active: 12.6 µM. In the case of `Clc1ccccc1OCCNc1nc(NCC2CC2)nc2ccsc12`, the “growth rescue (activation)” value is reported as inactive: 9.6%. For `CC(C)C(=O)Nc1cccc(NC(=O)c2cccc(Br)c2)c1`, the “growth rescue (activation)” value was inactive: 6.23%. In the case of `COc1ccc(CSc2ncn[nH]2)cc1[N+](=O)[O-]`, the “growth rescue (activation)” value is reported as inactive: 8.32%. With `COc1ccc(OC)c(Nc2nc3nonc3nc2N2CCCC(C)C2)c1` (centres undefined) the “growth rescue (activation)” value was inactive: -3.85%. In the case of `CC(NC(=O)CSc1n[nH]c(N)n1)c1ccccc1` (centres undefined), the “growth rescue (activation)” value is reported as inactive: 5.45%. For `COc1ccc(OC)c(NC(=O)/C=C/c2ccccc2[N+](=O)[O-])c1`, the “growth rescue (activation)” value was inactive: 32.1%. With `CS(=O)(=O)N1CCN(c2ccc(NC(=O)CSc3nnc(-c4ccco4)o3)cc2)CC1` the “growth rescue (activation)” value was inactive: 7.83%. For `Cc1ccc(C(=O)C[n+]2ccccc2)cc1`, the “growth rescue (activation)” value was inactive: 14.9%. For `O=C1CN(C(=O)COc2ccc(Cl)cc2Cl)c2ccccc2N1`, the “growth rescue (activation)” value was inactive: 16.8%. For `COc1ccc(NC(C)C(=O)N/N=C/c2c(O)ccc3ccccc23)cc1` (centres undefined), the “growth rescue (activation)” value was inactive: -4.61%. With `CCC(=O)N(C)CCc1cc2c(c(OC)c1/C=N/NC(=O)c1ccc(Br)cc1)OCO2` the “growth rescue (activation)” value was inactive: 1.22%. With `COc1ccccc1CNC(=O)Cn1c(=O)oc2cc(Cl)ccc21` the “growth rescue (activation)” value was inactive: -7.39%. With `CCOC(=O)CON1C(=O)C(=O)N(OCC(=O)OCC)[C@H]2CCCC[C@H]21` the “growth rescue (activation)” value was inactive: 1.49%. With `O=C(Nc1ccccc1F)c1ccc(OCc2ccccc2)cc1` the “growth rescue (activation)” value was inactive: -8.86%. In the case of `COc1ccc(C2CCCN2C(=S)Nc2ccccc2C)cc1OC` (centres undefined), the “growth rescue (activation)” value is reported as inactive: 20.9%. With `Cc1ccc(S(=O)(=O)N2CCCCC2)cc1C(=O)OCC(=O)NC(=O)NC12CC3CC(CC(C3)C1)C2` the “growth rescue (activation)” value was inactive: 34.9%. In the case of `Cc1csc(NC(=O)c2cc[n+]([O-])cc2)n1`, the “growth rescue (activation)” value is reported as inactive: -14.4%. In the case of `Cc1cccc(N2C(=O)CC(SC(N)=Nc3ccccc3)C2=O)c1` (centres undefined), the “growth rescue (activation)” value is reported as inactive: 1.96%. With `Cc1cc(C(=O)N/N=C/c2ccccc2)c(C)o1` the “growth rescue (activation)” value was inactive: 6.57%. With `CCC(C)[C@H](NC(=O)Nc1ccc(S(N)(=O)=O)cc1)C(=O)OC` (some centres undefined) the “growth rescue (activation)” value was inactive: 23.5%. In the case of `CC(C)CC1CCCCC1OC(=O)C[N+]1(C)CCCCC1` (centres undefined), the “growth rescue (activation)” value is reported as inactive: 5.74%. For `Cc1ccc(CN(C)CC(=O)Nc2ccc3c(c2)CCC3)cc1`, the “growth rescue (activation)” value was inactive: 5.92%. In the case of `NC(=O)CCN1CCN(S(=O)(=O)/C=C/c2ccccc2)CC1`, the “growth rescue (activation)” value is reported as inactive: -14.4%. In the case of `Cc1cccc(NC(=S)NC(=O)c2ccc(-c3ccccc3)cc2)n1`, the “growth rescue (activation)” value is reported as inactive: 4.77%. In the case of `CC(C)c1ccc(CC(=O)N2CCC2(C)C(=O)NCC(C)(C)C)cc1` (centres undefined), the “growth rescue (activation)” value is reported as inactive: 13%. In the case of `CC(=O)c1ccc(N2CCN(C(=O)c3cc(S(=O)(=O)N4CCOCC4)ccc3C)CC2)cc1`, the “growth rescue (activation)” value is reported as inactive: 11.8%. For `Cc1cc(C(C)(C)C)cc(C)c1CCNC(=O)c1c(C)noc1C`, the “growth rescue (activation)” value was inactive: 15.7%. In the case of `CCOC(=O)N1CCN(C(=O)COC(=O)Cc2ccc(Cl)cc2)CC1`, the “growth rescue (activation)” value is reported as inactive: 5.63%. In the case of `Cc1cc(C)c(C#N)c(SCC(=O)Nc2ccccc2C)n1`, the “growth rescue (activation)” value is reported as inactive: 16.9%. With `O=C1CC(N2CCC(c3nc4ccccc4o3)CC2)C(=O)N1c1ccc(F)cc1` (centres undefined) the “growth rescue (activation)” value was inactive: -4.73%. With `Cc1ccc(NC(=O)Cn2nnc(-c3ccc4c(c3)OCO4)n2)cc1F` the “growth rescue (activation)” value was inactive: 0.0498%. With `COc1ccccc1CN1C(=O)C(=O)c2cccc(C)c21` the “growth rescue (activation)” value was inactive: -6.75%. For `Cc1cc(C)n(-c2ccc(C(=O)NCc3ccc(F)cc3)cc2)n1`, the “growth rescue (activation)” value was inactive: 37.5%. With `COc1ccc(N2CCN(C(=O)CSc3ncnc4c3cnn4-c3ccc(OC)cc3)CC2)cc1` the “growth rescue (activation)” value was inactive: 0.18%. With `O=C(O)CNS(=O)(=O)/C=C/c1ccccc1` the “growth rescue (activation)” value was inactive: -7.37%. For `COc1ccc(N(CC(=O)NCCSc2ccccc2)S(=O)(=O)c2ccccc2)c(OC)c1`, the “growth rescue (activation)” value was inactive: -0.0116%. In the case of `COc1ccc(CCNC(=O)CSc2nnc(Cc3cccn3C)n2C)cc1OC`, the “growth rescue (activation)” value is reported as inactive: -10.2%. For `CCOc1ccc(C2C(C#N)=C(N)N(N(C)C)C3=C2C(=O)CC(C)(C)C3)cc1` (centres undefined), the “growth rescue (activation)” value was inactive: -14.7%. For `Cc1ccc2c(c1)cc(CN(C(=O)N1CCOCC1)C1CCCC1)c1nnnn12`, the “growth rescue (activation)” value was inactive: 9.06%. With `Cc1cc(C)cc(C(=O)NCC(=O)N2CCN(C(c3ccccc3)c3ccccc3)CC2)c1` the “growth rescue (activation)” value was inactive: -3.49%. In the case of `CCCCN(C=O)c1c(CC)nc2ccc(C(=O)N3CCCCC3)cn12`, the “growth rescue (activation)” value is reported as inactive: -5.08%. For `CCS(=O)(=O)N1CCCC(C(=O)NCc2cccc(OC)c2)C1` (centres undefined), the “growth rescue (activation)” value was inactive: 0.884%. For `O=C(CSc1ncccn1)N1CCN(S(=O)(=O)c2ccccc2)CC1`, the “growth rescue (activation)” value was inactive: 0.149%. For `O=c1[nH]c(-c2cccnc2)nc2sc(-c3ccccc3)cc12`, the “growth rescue (activation)” value was inactive: -6.66%. In the case of `COc1ccc(CN(C)Cc2c(O)ccc3cc(Br)ccc23)cc1OC`, the “growth rescue (activation)” value is reported as inactive: -9.63%. For `COc1ccc(N2CCN(c3nc4cc(C)ccc4cc3C=O)CC2)cc1`, the “growth rescue (activation)” value was inactive: 21.9%. With `OCCC1CN(Cc2cccn2-c2cccnc2)CCN1CCc1ccccc1` (centres undefined) the “growth rescue (activation)” value was inactive: 2.96%. In the case of `COc1ccc(N2CCN(c3nccs3)CC2)cc1`, the “growth rescue (activation)” value is reported as inactive: 2.34%. With `COc1ccc(/C(N)=N/OC(=O)C2CCC(=O)N2S(=O)(=O)c2ccc(C)cc2)cc1OC` (centres undefined) the “growth rescue (activation)” value was inactive: 9.24%.
